Reference: ChEMBL document CHEMBL4888484, “Replenishing the malaria drug discovery pipeline: Screening and hit evaluation of the MMV Hit Generation Library 1 (HGL1) against asexual blood stage Plasmodium falciparum ,using a nano luciferase reporter read-out” (2022)
Several values for one entry are separate records, joined by “and”; a condition that tells them apart may be missing. Equal entries are not always repeated. Out of some 150,000 compounds screened, about 540 (0.36%) showed an effect of 50% or more. Some of the results follow.

Tested on: Plasmodium falciparum
Experiment: Primary screen in NF54 nanoGlo assay, in single point, at 2uM, 72h; a lower Z score goes with more inhibition
Type: functional, Erythrocyte
Details: timepoint 72 hour

Compound	% Inhibition	Z score	% Inhibition (2 µM)
O=C(Nc1nnc(C(F)F)s1)c1coc(CC2CC2)n1	-6%	1.01	–
Cc1ccc(-c2cnc(C3CC3)o2)cc1S(=O)(=O)Nc1ccc(C(C)C)cc1	-8%	1.5	–
COC1(C(=O)NC2CCCN(c3cc(C)nn3C)C2=O)CCOC1 (centres undefined)	4%	-0.5	–
CC(C)c1ccc([C@@H](NC(=O)NCc2ncn(C)n2)C(C)C)cc1	2%	-0.29	–
CCc1nc2cc(-c3cccc(C(=O)NCC[C@H]4CCOC4)c3)ccc2o1	1%	-0.22	–
CCNC(=O)[C@H]1CCN(c2nc(C)cc(C3CCC3)n2)C1	-11%	1.2	–
O=C1[C@@H]2C[C@@H](O)CN2C(=O)CN1Cc1ccccc1	-18%	1.57	–
O=C1Cc2ccccc2N1CCNS(=O)(=O)Cc1ccc(Cl)c(F)c1	-2%	0.35	–
NC[C@H]1CCN(C(=O)c2cnc(-c3cc(Cl)cc(Cl)c3)nc2O)C1	-13%	1.68	–
O=C(CN1CCCN(c2ccc(C(F)(F)F)cn2)CC1)Nc1ccccc1	0%	0.05	–
Cc1ccc(CCNC(=O)Nc2ccc3c(c2)O[C@@H](C)C(=O)N3C)o1	-20%	2	–
O=C(c1ccc2[nH]ccc2c1)N1CCN(CC2CC2)[C@@H]2CS(=O)(=O)C[C@@H]21	-5%	0.62	–
Cc1cc(NCC(=O)N2CCCCCC2)ccc1Br	-6%	0.66	–
C[C@]1(c2ccc(C#N)cc2)NC(=O)N(Cc2cccc3ccccc23)C1=O	-10%	0.9	–
O=S(=O)(c1cccc(F)c1)N1CCN(c2nc3nccc(-c4cc(Cl)ccc4Cl)n3n2)CC1	-13%	1.58	–
CCn1ccnc1C1CCN(C(=O)c2cc(CC(C)C)nn2CC)CC1	-10%	1.63	–
COc1cc(OC)cc(S(=O)(=O)NC(=O)[C@H]2CC[C@H](c3ccccc3)C2)c1	-11%	1.21	–
Cc1cc2nccc(NC(=O)N3CC[C@H](c4ccco4)C3)n2n1	-6%	0.7	–
CC(C)[C@H](O)C(=O)N(C)CCN(C)C1CCCC1	-8%	0.76	–
COc1ccc(-c2nc(-c3ccc(=O)n(C)c3)no2)c(OC)c1	33%	-0.81	–
CC(C)Cn1c(-c2ccccn2)n[nH]c1=O	1%	-0.18	–
CN1C(=O)CCC1C(=O)NC1COc2ccccc2C1O (centres undefined)	-10%	1.56	–

Compound	% Inhibition	Z score	% Inhibition (2 µM)
O=C(NCc1ccccc1F)c1csc(CN2CCC(Cc3ccccc3)CC2)n1	-6%	0.87	–
COC1(C(=O)N2CC(C)OC(C)C2)CCNCC1 (centres undefined)	5%	-0.99	–
Cc1ccc(C2=NN(c3nc(-c4ccccc4)c4cc(Cl)ccc4n3)[C@H](c3ccc4c(c3)OCO4)C2)cc1	3%	-0.4	–
CC(C)(C#N)c1nc(Cc2csc(-c3ccccc3)n2)no1	-17%	1.86	–
O=C(c1cc(-c2ccccc2)n[nH]1)N1CC(c2nc(-c3ncccn3)no2)C1	-8%	1.58	–
CC1CC(C)CN(S(=O)(=O)NCC(C)(O)c2ccco2)C1 (centres undefined)	-8%	0.86	–
NC(=O)c1nc(CN2CCn3nc(CCC(=O)NC4CC4)cc3C2)no1	4%	-0.69	–
COC(=O)N[C@H](C(=O)NCc1ccc(-n2cnc3ccccc32)cc1Cl)C(C)C	6%	-0.71	–
CO[C@@H](CS(=O)(=O)Nc1ccnc2cccnc12)C1CCCC1	-2%	0.34	–
COc1cc2c(cc1OC)[C@@H](c1c(F)cccc1Cl)N(C(=O)COc1ccc(Cl)cc1)CC2	-6%	0.59	–
NC(=O)CC[C@H]1CCCN(c2nnnn2-c2ccc(-c3ccccc3)cc2)C1	-14%	1.91	–
CN(Cc1ccsc1)C(=O)NCc1cccnc1N1CCOCC1	-4%	0.75	–
CN1CCN(C(=O)c2cc(COc3ccc(F)c(F)c3)on2)C[C@H]1c1ccccc1	-9%	1.35	–
CC(N[C@H]1CS(=O)(=O)C[C@@H]1S(=O)(=O)c1cccs1)c1ccccc1 (some centres undefined)	–	–	9% and 0%
C=CCONC(=O)Nc1ccccc1Cl	-5%	0.7	–
CN(Cc1ccc2nonc2c1)C(=O)CCc1csc(N)n1	-18%	1.77	–
O=C(O)[C@H]1CCCN1CCOc1ccccc1	-13%	1.24	–
O=C1c2cccn2C[C@@H]1CC(=O)N1CCCCC1	-15%	1.74	–
CS(=O)(=O)N1CCO[C@@H](CNC(=O)c2cccc3c2OCC3)C1	-3%	0.54	–
Cc1ccn(CCC(=O)N2C[C@H]3COCC[C@@]3(O)[C@@H]3COCC[C@@H]32)n1	-3%	0.28	–
Cc1cn2nc(N3CCc4nn(C(C)C)c(=O)cc4C3)sc2n1	29%	-3.28	–
COc1ccccc1N1CCN2c3ccc(C(F)(F)F)cc3CC(C(=O)NC(C)C)C2C1 (centres undefined)	-9%	1.01	–

Compound	% Inhibition	Z score	% Inhibition (2 µM)
O=C(CS(=O)(=O)c1ccc2c(c1)OCCCO2)NC1CCCC1	-29%	3.42	–
Cc1nc(-c2ccc(C)c(-n3cc(C(=O)Nc4cc(Cl)ccc4C)c(C)n3)c2)no1	7%	-0.79	–
CCCc1ncncc1C(=O)NC[C@H]1CCN(c2ccccc2C)C1	-3%	0.39	–
Cc1n[nH]c(C)c1CC(C)C(=O)NC1CC1c1ccc(F)cc1F (centres undefined)	-12%	1.09	–
c1cc(NC2CCOCC2)nc(C2CC2)n1	-5%	0.57	–
CCC[C@H](NCCCN1C(=O)COc2ccccc21)C1CC1	-15%	1.3	–
CN1C(=O)N(c2ccccn2)C(=O)[C@H]1c1cccc(Br)c1	-9%	1.14	–
Cc1cc(C(=O)N(C)Cc2cnn(C)c2)no1	-6%	0.94	–
CC1(C)COCCN1C(=O)CCn1nnc2ccccc2c1=O	-6%	0.67	–
CC1(C)C[C@@](C)(c2ccccc2)c2ccccc2N1	-9%	1.05	–
O=c1[nH]c(-c2nc(-c3cnccn3)no2)cc2ccccc12	2%	-0.24	–
Cc1cnc(C(C)NC(=O)N2CCOC(Cn3cccn3)C2)s1 (centres undefined)	-3%	0.37	–
CC(C)n1c(=O)c(NCc2ccc(F)c(Cl)c2)nc2ccncc21	9%	-1.41	–
O=C(c1cnn2c1OCCC2)N(CCO)c1ccccc1	-8%	1.25	–
COc1ccc2[nH]cc([C@@H](CC(=O)NCc3ccco3)C(C)C)c2c1	-9%	1.12	–
CC(C)c1cc(C(=O)N2CCCCC[C@H]2c2c(Cl)cnn2C)no1	-17%	1.48	–
Cc1cc(NCCc2ncccc2F)ncn1	-7%	0.84	–
CO[C@H]1CCCN(C(=O)c2cn(C)c(C)cc2=O)C1	-16%	1.59	–
COc1ccc(S(=O)(=O)[C@@H](CNC(=O)c2ccc(Br)cc2)c2cccnc2)cc1	-18%	3.39	–
Cc1nc(N)nc(N(C)CCc2ccncc2)c1CCC(=O)O	5%	-0.92	–
O=C1CCC2(CCN(C(=O)c3cccnc3)CC2)CN1CCc1ccncc1	3%	-0.36	–
Cc1n[nH]c(CNC(=O)Nc2sc(C)nc2CC(C)C)n1	-2%	0.26	–

Compound	% Inhibition	Z score	% Inhibition (2 µM)
Cc1ncccc1Oc1ncnc(N[C@H]2COC[C@@H]2O)c1C	-8%	1.07	–
CN(C)c1cc(NC(=O)CCOC2CCOCC2)ncn1	-5%	1.04	–
COc1ccc(CCN=C(N)NS(=O)(=O)c2ccc(F)cc2)cc1OC	-4%	0.72	–
CC(C)c1nnc(CNc2ncc(Cl)cn2)n1C	0%	-0.03	–
COc1ccc(F)cc1S(=O)(=O)N1CC2(C[C@H](CC(=O)NCC3CC3)CO2)C1	-2%	0.34	–
Cc1ccsc1CN1CC[C@@]2(CCCN(Cc3cccnc3)C2=O)C1	-3%	0.47	–
Cc1nc2c([nH]1)CN(C[C@@H]1CCCN3CCCC[C@H]13)CC2	3%	-0.62	–
CC(C)(O)CN1CCN(C(=O)CC[C@H]2CCCO2)CC1	-10%	0.86	–
COCCN1CCN(c2nc(-c3cccc(F)c3)c3c(N)n(-c4ccc(F)cc4)nc3n2)CC1	-2%	0.37	–
COc1ccc(N(C)S(=O)(=O)c2cccc3nonc23)cc1	-6%	0.95	–
CC(CC(=O)O)(C(=O)N1CC[C@H](OC(F)F)C1)c1ccc(F)cc1 (some centres undefined)	0%	-0.03	–
CCOC(=O)c1coc(N2CCC(OCc3cccnc3)CC2)n1	0%	0.02	–
Cc1oc(-c2cc(C(F)(F)F)on2)cc1S(=O)(=O)N1CCC[C@H](c2cc[nH]n2)C1	-6%	0.73	–
COc1ccc(CN(C)Cc2n[nH]c3c2CCC3)cn1	-2%	0.34	–
COC(c1ccccc1F)C(C)NC(=O)Cc1ccc2cn[nH]c2c1 (centres undefined)	5%	-0.89	–
COc1ccc(CC(=O)NCCOCCO)cc1	33%	-4.21	–
CC(C)C(=O)NCCNc1nc2c(c(=O)[nH]1)Cc1ccccc1OC2	-16%	2.13	–
Cc1cc(C)c(CN(C)[C@@H](C)C(=O)N(C)C)cc1C	-4%	0.77	–
CCOC(=O)C1(C(=O)NCc2cc(C)on2)CCCC1	7%	-0.84	–
